{"source": "PubChem BioAssay (Tox21)", "key": {"[1]": {"test": "qHTS assay to identify small molecule agonists of the retinoic acid receptor (RAR) signaling pathway (AID 1159553); also: potency is read from the fitted curve at half-maximal effect; as to activation: % is scaled to controls: 0 for no effect and ±100 for the full control effect", "conditions": "C3RL4 RARE luciferase reporter, agonist, 6 h; activation: at 73.3 µM (top of the series) unless noted", "method_in_brief": "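Quantitative high-throughput format: the Tox21 10K library was tested on C3RL4 RARE-luciferase cells for 6 hr at 37 C and 5% CO2, with luminescence measured after a 30 min room-temperature reagent step.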"}, "[2]": {"test": "qHTS assay to identify small molecule antagonists of the estrogen related receptor (ERR) signaling pathway (AID 1224819; also: potency is read from the fitted curve at half-maximal effect; nearly all actives have a fitted effect of over 50% in size)", "method_in_brief": "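ERR reporter cell line (NTP) plated at 2,000 cells/well, settled 6 h at 37C/5% CO2, then exposed to LOPAC compounds for 18 h at 37C. One-Glo luciferase luminescence read after 30 min at room temperature.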"}, "[3]": {"test_system": "estrogen-related receptor alpha (ERRalpha) with PGC-1alpha coactivator, human", "test": "qHTS assay to identify small molecule antagonists of the estrogen related receptor signaling pathway with the pleiotropic PPARgamma coactivator (PGC) (AID 1224821; calls by dose curve;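 also: % is scaled to controls: 0 for no effect and ±100 for the full control effect; lower luminescence signal means antagonism of PGC/ERR signalling; nearly all actives have a fitted effect of over 50% in size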)", "method_in_brief": "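PGC/ERR reporter cells; 6 h pre-incubation 37 C/5% CO2; pin-tool compound in DMSO, 18 h 37 C; One-Glo added, 30 min RT; luminescence read. qHTS antagonist mode.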"}, "[4]": {"test": "qHTS assay to identify small molecule agonists of the constitutive androstane receptor (CAR) signaling pathway - cell viability counter screen (AID 1224836); also: potency is read from the fitted curve at half-maximal effect; nearly all actives have a fitted effect of over 45% in size", "method_in_brief": "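Cell viability multiplexed with the CAR agonist screen: CellTiter-Fluor fluorescence after 23 hr at 37 C. HepG2-CYP2B6-hCAR cells got compounds at 15 concentrations with PK11195 at 0.75 uM final.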"}, "[5]": {"test": "qHTS assay to identify small molecule antagonists of the constitutive androstane receptor (CAR) signaling pathway - cell viability counter screen (AID 1224837); also: potency is read from the fitted curve at half-maximal effect; nearly all actives have a fitted effect of over 45% in size", "method_in_brief": "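Cells are seeded, rested 4 hr at 37 C/5% CO2, dosed with compound (15-point series) and 50 nM CITCO, incubated a further 23 hr, and then CellTiter-Fluor reagent is added before fluorescence is read. The line is HepG2 with stable hCAR and CYP2B6-2.2kb.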"}, "[6]": {"test": "qHTS assay to identify small molecule antagonists of the estrogen related receptor signaling pathway with the pleiotropic PPARgamma coactivator (PGC) from Tox21 10K library - cell viability counter screen (AID 1224840; active = well fitted cell-killing curve with a large enough effect in the repeat runs, not every such curve was filed as active; inconclusive = weak or mixed curves, or effect the other way; inactive = no such curve, though single readings can be large or run the other way; also: potency is read from the fitted curve at half-maximal effect; nearly all actives have a fitted effect of over 40% in size)", "method_in_brief": "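Cell viability is measured by CellTiter-Fluor fluorescence in PGC/ERR cells that receive compounds after a 6-hour attachment period and are then incubated 17.5 hours at 37 C.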"}, "[7]": {"molecular_target": "Thyrotropin receptor (Homo sapiens) (UniProt P16473)", "sequence (P16473 whole entry, looked up)": "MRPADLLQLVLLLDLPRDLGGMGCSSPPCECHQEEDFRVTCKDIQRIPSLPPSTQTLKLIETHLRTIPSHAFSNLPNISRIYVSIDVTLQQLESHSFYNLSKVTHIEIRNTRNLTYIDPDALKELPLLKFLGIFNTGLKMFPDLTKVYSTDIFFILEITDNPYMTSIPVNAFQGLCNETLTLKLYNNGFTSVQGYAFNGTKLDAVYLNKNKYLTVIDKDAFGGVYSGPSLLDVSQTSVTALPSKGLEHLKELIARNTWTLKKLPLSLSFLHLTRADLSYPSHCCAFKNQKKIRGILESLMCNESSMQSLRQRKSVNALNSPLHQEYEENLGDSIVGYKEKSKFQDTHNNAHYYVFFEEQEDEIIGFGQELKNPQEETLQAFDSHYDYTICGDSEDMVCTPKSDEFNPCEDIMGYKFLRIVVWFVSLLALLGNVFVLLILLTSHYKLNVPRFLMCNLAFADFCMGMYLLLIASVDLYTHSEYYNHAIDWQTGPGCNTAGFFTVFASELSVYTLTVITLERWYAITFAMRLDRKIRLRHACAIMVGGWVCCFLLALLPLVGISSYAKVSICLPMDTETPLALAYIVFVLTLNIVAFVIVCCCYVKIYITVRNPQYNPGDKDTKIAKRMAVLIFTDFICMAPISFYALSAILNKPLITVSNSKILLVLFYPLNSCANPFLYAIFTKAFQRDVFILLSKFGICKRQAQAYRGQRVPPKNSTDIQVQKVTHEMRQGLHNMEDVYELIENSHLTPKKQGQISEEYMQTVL", "test": "qHTS assay to identify small molecule agonists of the thyroid stimulating hormone receptor (TSHR) signaling pathway (AID 1224843; calls by dose curve; also: nearly all actives have a fitted effect of over 45% in size; also: potency is read from the fitted curve at half-maximal effect; as to activation: % is scaled to controls: 0 for no effect and ±100 for the full control effect)", "conditions": "TSHR-HEK293 cells, cAMP HTRF, agonist mode, 30 min; activation: at 92.4 µM (top of the series) unless noted", "method_in_brief": "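Using 15 concentrations per compound in triplicate, cAMP production was monitored in TSHR-HEK293 cells after 30 min compound incubation at RT; HTRF reagents followed, with fluorescence intensity recorded after 1 h.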"}, "[8]": {"test": "qHTS assay to identify small molecule agonists of the hypoxia (HIF-1) signaling pathway - cell viability counter screen (AID 1224844; calls by dose curve; also: potency is read from the fitted curve at half-maximal effect; nearly all actives have a fitted effect of over 50% in size)", "method_in_brief": "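Viability counter screen: HRE-bla ME-180 cells plated 5 hrs before compound addition, treated 17 hrs at 37C and 5% CO2, then CellTiter-Glo added after the FRET reporter read; luminescence after 30 min.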"}, "[9]": {"test": "qHTS assay to identify small molecule antagonists of the estrogen related receptor (ERR) signaling pathway from Tox21 library - cell viability counter screen (AID 1224834); also: nearly all actives have a fitted effect of over 30% in size; also: potency is read from the fitted curve at half-maximal effect", "method_in_brief": "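Compounds in DMSO were pinned onto ERR cells that had been incubated for 6 h, and the plates were held at 37 C for 17.5 h. CellTiter-Fluor reagent was then added and fluorescence was measured after 30 min.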"}, "[10]": {"test": "qHTS assay to identify small molecule antagonists of the retinoic acid receptor (RAR) signaling pathway (AID 1159552; also: nearly all actives have a fitted effect of over 50% in size; also: potency is read from the fitted curve at half-maximal effect)", "method_in_brief": "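Luminescent RARE reporter read-out in C3RL4 cells: 6 hr co-treatment at 37 C of test compounds with retinol at 1 uM final. Cells plated overnight beforehand; luciferase reagent incubated 30 min at room temperature before reading.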"}, "[11]": {"test": "qHTS assay to identify small molecule antagonists of the estrogen related receptor signaling pathway with the pleiotropic PPARgamma coactivator (PGC) cell viability counter screen (AID 1224822; also: potency is read from the fitted curve at half-maximal effect)", "method_in_brief": "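Cytotoxicity in the PGC/ERR cell line is assessed with CellTiter-Fluor, read as fluorescence intensity 30 min after reagent addition, following 17.5 h compound treatment at 37 C.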"}, "[12]": {"test": "qHTS assay to identify small molecule agonists of the estrogen related receptor signaling pathway with the pleiotropic PPARgamma coactivator (PGC) from Tox21 10K library (AID 1224842); also: potency is read from the fitted curve at half-maximal effect; nearly all actives have a fitted effect of over 15% in size", "method_in_brief": "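PGC/ERR reporter cells (NTP line) were seeded 2,000 per well, rested 6 h at 37 C/5% CO2, then pin-dosed with compounds in DMSO for 18 h at 37 C; luciferase read by One-Glo luminescence after 30 min at room temperature.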"}, "[13]": {"test": "qHTS assay to identify small molecule antagonists of the estrogen related receptor (ERR) signaling pathway - cell viability counter screen (AID 1224818); also: potency is read from the fitted curve at half-maximal effect", "method_in_brief": "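Quantitative high-throughput viability counter screen in ERR cells. Compounds (DMSO) incubated 17.5 h at 37 C; read-out was CellTiter-Fluor fluorescence.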"}, "[14]": {"molecular_target": "Nuclear receptor subfamily 1 group I member 3 (Homo sapiens) (UniProt Q14994)", "sequence (Q14994 whole entry, looked up)": "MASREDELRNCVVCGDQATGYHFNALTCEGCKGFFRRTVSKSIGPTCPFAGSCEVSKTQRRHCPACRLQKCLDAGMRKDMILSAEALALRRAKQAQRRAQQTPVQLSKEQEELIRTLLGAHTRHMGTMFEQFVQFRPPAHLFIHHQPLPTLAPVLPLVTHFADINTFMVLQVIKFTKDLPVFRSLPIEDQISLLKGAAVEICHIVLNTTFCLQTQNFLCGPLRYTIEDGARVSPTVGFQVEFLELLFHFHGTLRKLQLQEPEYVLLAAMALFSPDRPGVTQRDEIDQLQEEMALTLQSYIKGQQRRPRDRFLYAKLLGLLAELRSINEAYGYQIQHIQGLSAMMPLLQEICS", "test": "qHTS assay to identify small molecule antagonists of the constitutive androstane receptor (CAR) signaling pathway (AID 1224838); also: potency is read from the fitted curve at half-maximal effect; nearly all actives have a fitted effect of over 40% in size", "method_in_brief": "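Luminescence from a CYP2B6-2.2kb promoter reporter in hCAR-expressing HepG2 cells reflects CAR signaling. Cells received compounds at 15 concentrations and 50 nM CITCO (final), then incubated 24 h at 37 C/5% CO2.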"}, "[15]": {"molecular_target": "Luciferin 4-monooxygenase (Photinus pyralis) (UniProt P08659)", "sequence (P08659 whole entry, looked up)": "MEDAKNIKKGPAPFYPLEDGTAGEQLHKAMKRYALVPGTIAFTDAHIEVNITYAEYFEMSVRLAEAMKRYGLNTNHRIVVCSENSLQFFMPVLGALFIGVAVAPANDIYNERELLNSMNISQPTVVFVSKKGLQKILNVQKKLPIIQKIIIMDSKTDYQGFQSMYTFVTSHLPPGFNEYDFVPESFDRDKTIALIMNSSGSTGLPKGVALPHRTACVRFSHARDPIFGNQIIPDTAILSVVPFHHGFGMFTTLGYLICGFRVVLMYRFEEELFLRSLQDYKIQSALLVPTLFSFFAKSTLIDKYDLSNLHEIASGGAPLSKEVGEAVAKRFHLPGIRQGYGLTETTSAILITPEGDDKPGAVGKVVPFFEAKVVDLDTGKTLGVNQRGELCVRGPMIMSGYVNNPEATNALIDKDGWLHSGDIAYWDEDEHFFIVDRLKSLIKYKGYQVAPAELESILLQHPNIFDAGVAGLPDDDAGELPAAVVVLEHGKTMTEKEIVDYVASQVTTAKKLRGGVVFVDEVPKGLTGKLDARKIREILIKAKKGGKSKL", "test": "qHTS assay to identify small molecule inhibitors of firefly luciferase (AID 1224835); also: potency is read from the fitted curve at half-maximal effect; nearly all actives have a fitted effect of over 25% in size", "method_in_brief": "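Quantitative HTS format; KM concentrations of both substrates. Purified P. pyralis FLuc activity quantified from luminescence images.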"}, "[16]": {"molecular_target": "Nuclear receptor subfamily 1 group I member 3 (Homo sapiens) (UniProt Q14994)", "test": "qHTS assay to identify small molecule agonists of the constitutive androstane receptor (CAR) signaling pathway (AID 1224839); also: potency is read from the fitted curve at half-maximal effect; nearly all actives have a fitted effect of over 15% in size", "method_in_brief": "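Luminescent ONE-Glo read-out after 24 hr, 37 C exposure of double-stable HepG2-CYP2B6-hCAR reporter cells to a 15-point compound series, in the presence of 0.75 uM PK11195 (final).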"}}, "note": "Where “and” joins values, the source holds several entries; their conditions need not be identical. Equal entries are not always repeated. Inconclusive results, whose numbers are uncertain, are shown with a selection of clear calls. For part of these data: Potencies beside an inconclusive call are fits to weak or partial responses and may not hold up. A structure can be active in one record and inactive in another. Calls of active or inactive are those of the source. Unless noted, calls follow the shape of the dose curve; as a rule, active = well fitted curve in the direction sought with a large enough effect in the repeat runs; inconclusive = weak or mixed curves; inactive = no such curve, though single readings can be large; an effect the other way counts as inactive or inconclusive. Tags tell the direction and shape of the fitted curve or compound fluorescence and quenching."}
{"smiles": "CCCCCCCO", "values": [{"measurement": "activation", "setting": "[1]", "result": "inconclusive: -0.429% [phenotype inactive] [at 94.8 µM]"}]}
{"smiles": "CC[C@]12CCCN3CCc4c(n(c5ccccc45)[C@@](O)(C(=O)OC)C1)[C@@H]32", "values": [{"measurement": "Potency", "setting": "[1]", "result": "inactive"}]}
{"smiles": "Cc1ccc(-c2cc(C(F)(F)F)nn2-c2ccc(S(N)(=O)=O)cc2)cc1", "values": [{"measurement": "Potency", "setting": "[1]", "result": "inconclusive: 19.3 µM [inhibitor, full curve] and inconclusive: 68.6 µM [inhibitor]"}, {"measurement": "activation", "setting": "[1]", "result": "inconclusive: -9.48% [phenotype inactive]"}, {"measurement": "Potency", "setting": "[2]", "result": "inconclusive: 19.6 µM [inhibitor]"}, {"measurement": "Potency", "setting": "[3]", "result": "inactive"}, {"measurement": "Potency", "setting": "[4]", "result": "inconclusive: 68.6 µM [cytotoxic, single point]"}, {"measurement": "Potency", "setting": "[5]", "result": "inconclusive: 60.9 µM [cytotoxic]"}, {"measurement": "Potency", "setting": "[6]", "result": "active: 54.3 µM and active: 54.5 µM"}, {"measurement": "Potency", "setting": "[7]", "result": "active: 48.4 µM and active: 34.4 µM"}, {"measurement": "Potency", "setting": "[8]", "result": "active: 48.8 µM and active: 54.9 µM"}]}
{"smiles": "c1ccc2cc3ccccc3cc2c1", "values": [{"measurement": "Potency", "setting": "[1]", "result": "inconclusive: 8.91 µM [activator, full curve, poor fit] and inconclusive: 17.2 µM [activator, partial curve]"}, {"measurement": "Potency", "setting": "[9]", "result": "inactive"}]}
{"smiles": "COC(=O)NCCC[Si](OC)(OC)OC", "values": [{"measurement": "Potency", "setting": "[10]", "result": "inconclusive: 68.6 µM [inhibitor, single point]"}, {"measurement": "Potency", "setting": "[1]", "result": "inconclusive: 15.4 µM [inhibitor, full curve]"}, {"measurement": "Potency", "setting": "[8]", "result": "inconclusive: 61.6 µM [cytotoxic, single point]"}]}
{"smiles": "CSCCC=O", "values": [{"measurement": "Potency", "setting": "[1]", "result": "inconclusive: 77 µM [inhibitor, single point]"}]}
{"smiles": "Clc1ccc(C(c2ccccc2Cl)C(Cl)Cl)cc1", "note": "(stereo not drawn)", "values": [{"measurement": "Potency", "setting": "[1]", "result": "inconclusive: 61.1 µM [inhibitor] and inconclusive: 23.7 µM [inhibitor, partial curve]"}, {"measurement": "Potency", "setting": "[11]", "result": "inconclusive: 32.2 µM [cytotoxic]"}, {"measurement": "Potency", "setting": "[6]", "result": "inconclusive: 68.6 µM [cytotoxic, partial curve, poor fit]"}, {"measurement": "Potency", "setting": "[7]", "result": "active: 12.2 µM and active: 5.31 µM"}, {"measurement": "Potency", "setting": "[8]", "result": "inconclusive: 26.8 µM [cytotoxic, single point]"}]}
{"smiles": "Oc1c(Br)cc(Br)c2cccnc12", "values": [{"measurement": "Potency", "setting": "[10]", "result": "inconclusive: 26.6 µM [inhibitor, single point]"}, {"measurement": "Potency", "setting": "[6]", "result": "inconclusive: 33.5 µM [cytotoxic, single point]"}, {"measurement": "Potency", "setting": "[12]", "result": "active: 29.8 µM"}, {"measurement": "Potency", "setting": "[8]", "result": "inconclusive: 13.4 µM [rising, partial curve]"}]}
{"smiles": "CC(C)(C)c1ccc(C(O)CCCN2CCC(C(O)(c3ccccc3)c3ccccc3)CC2)cc1", "note": "(stereo not drawn)", "values": [{"measurement": "Potency", "setting": "[1]", "result": "inconclusive: 10.6 µM [inhibitor, partial curve, poor fit]"}, {"measurement": "Potency", "setting": "[13]", "result": "inconclusive: 25.6 µM [cytotoxic]"}, {"measurement": "Potency", "setting": "[11]", "result": "active: 22 µM"}, {"measurement": "Potency", "setting": "[4]", "result": "active: 23.7 µM"}, {"measurement": "Potency", "setting": "[5]", "result": "active: 26.6 µM"}, {"measurement": "Potency", "setting": "[14]", "result": "active: 26.6 µM"}, {"measurement": "Potency", "setting": "[6]", "result": "inconclusive: 47.3 µM [cytotoxic, partial curve, poor fit]"}, {"measurement": "Potency", "setting": "[7]", "result": "inconclusive: 2.98 µM [activator, full curve]"}, {"measurement": "Potency", "setting": "[8]", "result": "active: 21.3 µM"}]}
{"smiles": "CC(C)(c1cc(Br)c(O)c(Br)c1)c1cc(Br)c(O)c(Br)c1", "values": [{"measurement": "Potency", "setting": "[10]", "result": "inconclusive: 60.9 µM [inhibitor] and inconclusive: 54.3 µM [inhibitor, partial curve] and inactive"}, {"measurement": "Potency", "setting": "[15]", "result": "inconclusive: 89.1 µM [inhibitor]"}, {"measurement": "Potency", "setting": "[8]", "result": "active: 54.8 µM and active: 48.9 µM and inconclusive: 52 µM [cytotoxic, single point]"}]}
{"smiles": "Nc1ccc(Nc2ccccc2)cc1", "values": [{"measurement": "Potency", "setting": "[10]", "result": "inconclusive: 67.8 µM [inhibitor, single point] and inconclusive: 6.86 µM [inhibitor, full curve]"}, {"measurement": "Potency", "setting": "[9]", "result": "inconclusive: 60.4 µM [cytotoxic, partial curve]"}, {"measurement": "Potency", "setting": "[15]", "result": "inconclusive: 70.2 µM [inhibitor, partial curve] and inconclusive: 63.3 µM [inhibitor, partial curve, poor fit]"}, {"measurement": "Potency", "setting": "[4]", "result": "inconclusive: 34.4 µM [cytotoxic, partial curve, poor fit]"}, {"measurement": "Potency", "setting": "[5]", "result": "inconclusive: 54.5 µM [cytotoxic, partial curve, poor fit]"}, {"measurement": "Potency", "setting": "[16]", "result": "inconclusive: 27 µM [activator, partial curve] and inconclusive: 61.1 µM [activator, single point] and inconclusive: 27.3 µM [activator, partial curve]"}, {"measurement": "Potency", "setting": "[6]", "result": "inconclusive: 60.4 µM [cytotoxic, partial curve] and inconclusive: 48.6 µM [cytotoxic, partial curve]"}, {"measurement": "Potency", "setting": "[7]", "result": "inconclusive: 30.6 µM"}, {"measurement": "activation", "setting": "[7]", "result": "inconclusive: 1.61% and inconclusive: -0.442%"}, {"measurement": "Potency", "setting": "[8]", "result": "inconclusive: 7.68 µM [cytotoxic, partial curve]"}]}
